PubChem BioAssay AID2675 (National Center for Advancing Translational Sciences (NCATS), 2010)
Hit rate of the full screen: of about 280,000 compounds, about 100 (0.036%) were called active. The inconclusive results got no clear call from the source; some entries with a clear call stand among them for comparison. Calls follow the shape of the dose curve; as a rule, active = well fitted inhibition curve with a large enough effect in the signal ratio, with a control signal flat (not every such curve was filed as active); inconclusive = small, poorly fitted or top-dose-only effect, or effect the other way, or a change in a side signal; inactive = no such curve, though single readings can be large or run the other way; the % refers to the signal ratio. Where the call is inconclusive, the potency comes from a doubtful curve fit. “Side channel” marks fits to a control or component signal instead of the main read-out.

target: Muscleblind-like protein 1 (Homo sapiens) (UniProt Q9NR56); experiment: qHTS Assay for Inhibitors of MBNL1-poly(CUG) RNA binding; conditions: TR-FRET MBNL1-His/biotin-(CUG)12 binding, 665/545 ratio; activity change, negative = inhibition: at 57.5 µM (top of the series)
Summary of the method: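 MBNL1-His + Biotin-(CUG)12, cpd titration 92 nM–58 uM; Tb anti-His Ab 0.055 ng/ul, SA-XL665 5 nM (final); 60 min RT; ratiometric 665/545 nm, Ex 340 nm; normalized to buffer and full-complex controls.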
% is scaled to controls: 0 for no effect and ±100 for the full control effect; potency is read from the fitted curve at half-maximal effect; tags tell the direction and shape of the fitted curve or compound fluorescence and quenching.

Chain of UniProt Q9NR56 (Q9NR56 whole entry, looked up): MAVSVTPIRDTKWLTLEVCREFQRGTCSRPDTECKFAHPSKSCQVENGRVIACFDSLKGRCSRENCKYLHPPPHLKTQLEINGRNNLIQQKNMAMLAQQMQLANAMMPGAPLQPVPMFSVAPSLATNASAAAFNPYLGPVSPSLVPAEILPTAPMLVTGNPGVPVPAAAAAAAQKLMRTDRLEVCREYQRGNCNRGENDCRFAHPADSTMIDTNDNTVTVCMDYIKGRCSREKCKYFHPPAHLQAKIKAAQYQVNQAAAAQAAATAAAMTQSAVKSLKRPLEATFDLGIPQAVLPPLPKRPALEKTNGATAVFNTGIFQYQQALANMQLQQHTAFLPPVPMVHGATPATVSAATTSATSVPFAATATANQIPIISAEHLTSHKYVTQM

Row | SMILES | Potency | activity change, negative = inhibition
1 | COc1ccc(N(C(=O)c2snc(C(N)=O)c2N)C(C(=O)NC2CCCC2)c2cccs2)cc1OC (stereo not given) | inconclusive: 4.47 µM [inhibitor, full curve] | –
2 | CCc1cc[n+](C2=C([O-])c3ccccc3C(=O)/C2=N\S(=O)(=O)c2cccs2)cc1 | inconclusive: 8.91 µM [quencher, full curve] | –
3 | COc1ccc(C2=NS(=O)(=O)N(C)C(C(=O)NC(C)c3ccccc3)=C2)cc1OC (stereo not given) | inconclusive: 25.1 µM [quencher, side channel, partial curve] | –
4 | Nc1cc(-c2ccc(Br)cc2)nn1S(=O)(=O)c1cccc2nsnc12 | inconclusive: 17.8 µM [quencher, side channel, partial curve] | –
5 | CN(C)CCN1C(=O)C(=O)/C(=C(/O)c2ccccc2)C1c1ccccc1F (stereo not given) | inconclusive: 31.6 µM [quencher, side channel, single point] | –
6 | COc1cccc(/C=N/Nc2nnc(C)n2N)c1OCc1ccccc1Cl | inconclusive: 17.8 µM [quencher, side channel, partial curve] | –
7 | CCn1nc([N+](=O)[O-])c(C(C#N)c2nc3ccccc3n2C)c(Cl)c1=O (stereo not given) | inconclusive: 15.8 µM [quencher, side channel, partial curve] | –
8 | CCN(C(=O)C(C)N1C(=O)/C(=C/c2ccco2)SC1=S)C1CCS(=O)(=O)C1 (stereo not given) | inconclusive: 14.1 µM [quencher, partial curve] | –
9 | Cn1ccnc1SCC(=O)c1cc2ccccc2o1 | inconclusive: 20 µM [quencher, side channel, partial curve] | –
10 | O=[N+]([O-])c1cccc(/C=N/N2CCN(Cc3ccccc3)CC2)c1 | inconclusive: 31.6 µM [quencher, side channel, single point] | –
11 | CC(=O)Nc1cccc(OCCCNC(=O)c2cccc3ccccc23)c1 | – | inactive: 4.41%
12 | CN1CCc2c(sc3c2c(=O)n(-c2ccccc2)c2n[nH]c(=S)n32)C1 | inconclusive: 3.16 µM [quencher, side channel, full curve] | –
13 | CNc1c([N+](=O)[O-])cnn1-c1ccccc1F | inconclusive: 28.2 µM [quencher, single point] | –
14 | CCCCn1c(-c2cccs2)nc2nc3ccccc3nc21 | inconclusive: 7.94 µM [quencher, side channel, partial curve] | –
15 | COc1ccc(C(=O)Nc2ccc(N3CCN(c4ccc(OC)cc4)CC3)c(C#N)c2)cc1 | – | inactive: 2.01%
16 | O=C(O)COc1ccccc1/C=N/NC(=O)c1cc(-c2ccc(F)cc2)nc2ccccc12 | inconclusive: 12.6 µM [quencher, side channel, partial curve] | –
17 | CNS(=O)(=O)c1cc2c3c(cccc3c1)C(=O)NC2=O | inconclusive: 11.2 µM [quencher, side channel, partial curve] | –
18 | COc1cc(OC)c(OC)cc1/C=N/Nc1ncnc2c1[nH]c1ccccc12 | inconclusive: 0.708 µM [inhibitor, full curve] | –
19 | CN1CCN(CCNC(=O)c2ccc3nc(-c4ccc(F)cc4)c(-c4ccc(F)cc4)nc3c2)CC1 | inconclusive: 14.1 µM [quencher, partial curve] | –
20 | O=C1CCCc2c1cc(C(=O)O)c(=O)n2-c1ccccc1 | – | inactive: 5.19%
21 | COC(=O)c1cc(S(=O)(=O)N(C)C2CCCCC2)c[nH]1 | – | inactive: -11.3%
22 | NC(=O)c1ccc(Oc2ccc(-c3nnco3)cc2)c([N+](=O)[O-])c1 | inconclusive: 12.6 µM [quencher, side channel, partial curve] | –

Row | SMILES | Potency | activity change, negative = inhibition
23 | CCC12CN(S(=O)(=O)c3ccc(C)cc3)CC(CC)(CN(S(=O)(=O)c3ccc(C)cc3)C1)C2=O | – | inactive: -3.64%
24 | O=c1[nH]cnc2c1C1(CCCC1)Cc1ccccc1-2 | – | inactive: -3.71%
25 | O=C(Cn1cnc2sc3c(c2c1=O)CCCC3)NCC(=O)Nc1c(F)cc(F)cc1Br | – | inactive: -1.25%
26 | CCC(=O)N(Cc1cccs1)C1CCOC(C)(C)C1 (stereo not given) | – | inactive: -19.3%
27 | Cc1ccn2c(-c3csc(NCc4ccccc4)n3)c(C)nc2c1 | – | inactive: 4.22%
28 | Cc1ccsc1/C=N/N=C1\C(=O)Nc2ccccc21 | inconclusive: 14.1 µM [quencher, side channel, partial curve] | –
29 | CCC(C)C(Nc1ccc(C(=O)OC)cc1[N+](=O)[O-])C(=O)OC (stereo not given) | inconclusive: 22.4 µM [quencher, side channel, partial curve] | –
30 | CCOC(=O)c1csc(NC(C)=O)n1 | inconclusive: 1000 µM [inhibitor, partial curve] | –
31 | Cc1ccc([N+](=O)[O-])cc1N/C=C/C(=O)c1ccco1 | inconclusive: 3.55 µM [quencher, side channel, full curve] | –
32 | C/C(Cl)=C\Cn1c(O)c(N=O)c2ccccc21 | inconclusive: 39.8 µM [quencher, side channel, single point] | –
33 | COc1ccc(C2=NS(=O)(=O)N(C)C(C(=O)Nc3ccc4c(c3)OCO4)=C2)cc1OC | inconclusive: 14.1 µM [quencher, side channel, partial curve, poor fit] | –
34 | CCN1C(=O)N(S(=O)(=O)c2ccc(C)cc2)[C@@H](c2ccccc2)C(C(=O)OC)=C1C | inconclusive: 3.98 µM [fluorescent, side channel, single point] | –
35 | CC1(C)NC(=O)N(CCOc2ccc([N+](=O)[O-])cc2)C1=O | inconclusive: 14.1 µM [quencher, side channel, partial curve] | –
36 | CN(C)CCOC(=O)c1ccc2[nH]c3c(c2c1)CSCC3 | – | inactive: -15.4%
37 | N#Cc1nc(COc2ccccc2F)oc1NCc1ccc(F)cc1 | – | inactive: -0.317%
38 | COc1ccccc1NS(=O)(=O)c1cccc(C(=O)N/N=C/c2ccc(C)o2)c1 | inconclusive: 31.6 µM [quencher, side channel, single point] | –
39 | O=[N+]([O-])c1ccc(CN2CCN(c3ncccn3)CC2)cc1 | inconclusive: 10 µM [quencher, side channel, partial curve] | –
40 | Oc1ccc2ccccc2c1C=NC1CCCCC1 | inconclusive: 31.6 µM [quencher, single point] | –
41 | NC(=O)c1ccccc1N/C=C1\CCCCC1=O | inconclusive: 20 µM [quencher, side channel, single point] | –
42 | O=C(/C=C/c1ccc(F)cc1)NC(=S)NNC(=O)c1cnccn1 | – | inactive: 9.13%
43 | O=C(N/N=C/C=C/c1ccco1)c1cccc([N+](=O)[O-])c1 | inconclusive: 2.82 µM [quencher, side channel, partial curve] | –
44 | CCOc1ccc(/C=C2\CCc3ccccc3C2=O)cc1 | inconclusive: 56.2 µM [quencher, side channel, partial curve] | –

Row | SMILES | Potency | activity change, negative = inhibition
45 | CC12CN3CC(C)(CN(C1)C3c1ccccc1)C2O (stereo not given) | inconclusive: 17.8 µM [quencher, side channel, partial curve] | –
46 | CC1(C)C(=O)Nc2ccccc2N1C(=O)COc1cccnc1[N+](=O)[O-] | inconclusive: 28.2 µM [quencher, side channel, partial curve] | –
47 | COc1ccccc1N1CCN(c2nc3ccccc3nc2C(C#N)C(=O)OC(C)C)CC1 (stereo not given) | – | inactive: 3.74%
48 | Cc1ccc(C(=O)COC(=O)c2cnccn2)cc1[N+](=O)[O-] | inconclusive: 22.4 µM [quencher, side channel, single point] | –
49 | O=C(C[n+]1ccc2ccccc2c1)c1ccccc1 | inconclusive: 15.8 µM [quencher, side channel, partial curve] | –
50 | CCN(Cc1ccncc1)C(=O)c1ccccc1NS(=O)(=O)c1ccc(Br)cc1 | inconclusive: 7.08 µM [fluorescent, side channel, single point] | –
51 | COc1ccc(Br)cc1C1CC(=O)N2CN(Cc3ccccc3)CSC2=C1C#N (stereo not given) | – | inactive: 8.12%
52 | COC(=O)c1cccnc1SCc1ccccc1 | inconclusive: 7.94 µM [quencher, side channel, full curve] | –
53 | CCCn1c(=O)c(-c2nc3ccccc3[nH]2)c(O)c2ccccc21 | – | inactive: -0.906%
54 | Cc1c(N)cc(N)cc1C(=O)O | inconclusive: 14.1 µM [quencher, side channel, partial curve] | –
55 | Cc1ccc(Nc2nc3nonc3[nH]c2=O)cc1C | inconclusive: 31.6 µM [quencher, side channel, single point] | –
56 | Cc1nc2ccccn2c1C(=O)/C=C/c1cccc([N+](=O)[O-])c1 | – | inactive: 2.61%
57 | CCN(CC)C(=O)c1cc2c(=O)n3cccc(C)c3nc2n1C | – | inactive: 107%
58 | Cc1ccc(C2(c3noc(CN4C[C@@H](C)O[C@@H](C)C4)n3)CCCC2)cc1 | – | inactive: -5.03%
59 | CCn1c(O)c(N=N)c2ccccc21 | inconclusive: 22.4 µM [quencher, side channel, partial curve] | –
60 | CC1CCN(c2ccc(C(=O)NCc3ccco3)cc2[N+](=O)[O-])CC1 | inconclusive: 14.1 µM [quencher, side channel, partial curve] | –
61 | CCc1ccc(NC(=O)NCCCN2CCCC2=O)cc1 | – | inactive: -5.55%
62 | CC1=C([N+](=O)[O-])C(c2cccc(Br)c2)C2=C(N1)c1ccccc1C2=O (stereo not given) | – | inactive: 12.2%
63 | CCN1C(=O)c2ccccc2S(=O)c2ccc(C(=O)NCCN(CC(C)C)CC(C)C)cc21 (stereo not given) | – | inactive: 2.03%
64 | CCN(CC)c1ccc(CN2CCC(C(=O)NCc3ccc(C)cc3)CC2)cc1 | inconclusive: 6.31 µM [quencher, side channel, partial curve] | –
65 | COc1cccc(CN2CCc3ccc(NC(=O)CCc4ccc(C)cc4)cc3C2)c1O | – | inactive: 12.1%
